Data published in PubChem BioAssay AID686979 (National Center for Advancing Translational Sciences (NCATS), 2013).
About 50,000 (12%) of roughly 420,000 compounds were called active. Inconclusive means that the source gave no clear call. Such entries were picked first, then a sample of the others. The call rests on the fitted dose curve; in most records, active means well fitted inhibition curve with a large enough effect; inconclusive means small, poorly fitted or top-dose-only effect; inactive means flat fitted curve, though single readings scatter. Potencies of inconclusive entries are left out as doubtful fits.

test: qHTS for Inhibitors of human tyrosyl-DNA phosphodiesterase 1 (TDP1): qHTS in cells in presence of CPT; conditions: chicken DT40 Tdp1-/-;hTDP1 cells + 20 nM CPT, ATP luminescence, 48 h; activity change, negative = growth inhibition: at 46.2 µM (top of the series) unless noted; further: nearly all actives have a fitted effect of over 55% in size
Summary of the method: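 Cell growth measured by CellTiter-Glo luminescence after a minimum 48 h, 37 C compound exposure with 20 nM CPT in Tdp1-knockout DT40 cells stably expressing hTDP1, seeded 400/well; qHTS titration format.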
On the % scale 0 is the no-effect control and ±100 the full control effect; potency means the concentration at half of the fitted maximal effect; tags describe the fitted curve by direction and shape.

Row | SMILES | Potency | activity change, negative = growth inhibition
1 | CN(C)C(=S)NC(=S)Nc1ccc2ccccc2c1 | inconclusive [inhibitor, single point] | 
2 | O=C(COC(=O)c1ccc2c(c1)OCCO2)NCCc1ccccc1 |  | inactive: -4.69%
3 | COc1ccc(CNC(=O)c2ccc(CN3C(=O)C(C)=C(c4ccc(C)cc4)S3(=O)=O)cc2)cc1 | inconclusive [inhibitor, partial curve] | 
4 | Cc1ccc(OCc2ccc(C(=O)NN)o2)cc1C |  | inactive: 4.59%
5 | COc1cc(OC)cc(C(=O)N[C@H](C(=O)Nc2nc(-c3ccc(OC)c(OC)c3)cs2)C(C)C)c1 | active: 18.4 µM | 
6 | Cc1ccc(Cl)cc1N1CCN(c2nc3ccc(C(=O)c4ccccc4)cc3n3cnnc23)CC1 | active: 18.4 µM | 
7 | COC(=O)c1ccc(-n2nnnc2SCC(=O)Nc2ccccc2OC)cc1 | inconclusive [inhibitor, single point] | 
8 | CCCCNC(=S)NNC(=O)c1cc(-c2cccnc2)nc2ccccc12 |  | inactive: -15.3%
9 | COc1ccccc1N(CC1CO1)S(=O)(=O)c1ccc(C)cc1 (configuration not stated) | inconclusive [inhibitor, partial curve] | 
10 | CCOC(=O)c1cccc(NC(=O)CCOc2ccccc2)c1 |  | inactive: 10.4%
11 | CCCOc1ccc(F)cc1-c1cc(C(=O)Nc2ccc(F)c(Cl)c2)[nH]n1 | active: 14.6 µM | 
12 | Fc1ccccc1OCCSc1nnnn1-c1ccccc1 |  | inactive: -27.6%
13 | Cc1cccc(N2CCN(C(=O)Cn3c(=O)[nH]c4ccsc4c3=O)CC2C)c1 (configuration not stated) | inconclusive [inhibitor, partial curve, poor fit] | 
14 | O=C1CC(c2ccc(OCCCCCOc3ccc(C4CC(=O)NC4=O)cc3)cc2)C(=O)N1 (configuration not stated) |  | inactive: -26.7%
15 | O=c1[nH]cc(S(=O)(=O)N2CCCc3ccccc32)c(=O)[nH]1 |  | inactive: 7.01%
16 | COc1cccc(C(=O)N(c2ccccc2)C2C=CS(=O)(=O)C2)c1 (configuration not stated) |  | inactive: -1.67%
17 | CCCC(=O)OC/C(O)=C(\C#N)c1nc2ccccc2[nH]1 |  | inactive: -13.6%
18 | Nc1[nH]nc2nc3ccccc3nc12 | inconclusive [inhibitor, single point] | 
19 | Cc1ccc(-n2ncc(C(=O)Nc3ccc4c(c3)OCCO4)c2C2CCN(C(=O)OC(C)(C)C)CC2)cc1C | inconclusive [inhibitor, single point] | 
20 | Cc1ccccc1NC(=O)C1(NC(=O)c2cccc(N3C(=O)CSC3c3ccccc3)c2)CCCCC1 (configuration not stated) | inconclusive [inhibitor, partial curve] | 
21 | Cc1cccc(NC(=O)CCc2ccc(N3C(N)=NC(N)=NC3(C)C)cc2)c1 | active: 0.326 µM | 
22 | CC(C)n1ncc2c(C(=O)O)cc(C3CC3)nc21 | inconclusive [inhibitor, single point] | 
